Assay results as given in PubChem BioAssay AID1963576 (National Center for Advancing Translational Sciences (NCATS), 2024).
The campaign covered roughly 46,000 compounds. About 60 (0.1%) were called active. Roughly 3% stayed inconclusive and do not appear here. Calls follow the shape of the dose curve; as a rule, active = well fitted inhibition curve with a large enough effect; inconclusive = small, poorly fitted or top-dose-only effect; inactive = no such curve, though single readings can be large or run the other way. The list shows a part of the results.

Experiment: Primary qHTS assay for Inhibitors of ovarian cancer metastasis using an organotypic tumor microenvironment (TME) model. Also: nearly all actives have a fitted effect of over 65% in size.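 As to activity change, negative = inhibition: plate controls were DMSO wells for no effect and tomatine positive control wells for full effect.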
Settings: SKOV3ip1-GFP adhesion/invasion on 3D omental model, fluorescence; series mostly up to 45.8 µM; activity change, negative = inhibition: at the top concentration
Procedure, shortened: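 Adhesion/invasion was scored as fixed GFP-labeled SKOV3ip1 cell counts (488/509 nm), normalized to DMSO and tomatine controls. Cancer cells in serum-free medium, with four compound doses (0.36-46 umol/L), sat 2 hr at RT then 16 hr at 37 C on a 48 hr fibroblast/mesothelial/ECM culture.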

Activity change, negative = inhibition, inactive:
CCN(CC)CCNC(=O)c1sc2nc(C)cc(C)c2c1-n1cccc1 -5.77%, Cc1ccc2onc(CNC(=O)N(C)Cc3ccccc3)c2c1 5.42%, Clc1ccccc1CNc1nc2ccccc2c2nc(-c3ccccc3)nn12 1.16%, O=C(C1CCCCC1)N(Cc1cccnc1)c1nc2c(F)cccc2s1 -6.95%, CC(C)Oc1ccc(CNC(=O)c2ccc3c(c2)N(Cc2ccc(F)cc2)CCS3)cc1 -18%, Cc1ccc(N(C)S(=O)(=O)c2ccc(-c3cnc(C4CC4)o3)cc2)cc1 -29.5%, COc1ccc(Nc2nc(-c3ccccc3)c3cc(Br)ccc3n2)cc1 1.22%, O=C(Cn1ncc2c3ccccc3n(Cc3ccc(F)cc3)c2c1=O)NC1CCCCCC1 1.84%, Cc1ccc(C)c(NC(=O)N2CCN(c3nnc(C)c4c(C)n(-c5ccccc5)nc34)CC2)c1 -5.41%, COc1cc2c(cc1OC)C(COc1ccccc1OC)N(C(=O)c1ccc(S(=O)(=O)N3CCCC3)cc1)CC2 (configuration not stated) -24.7%, COc1ccc(C)cc1NC(=O)CN1CCCN(S(=O)(=O)c2ccc(Br)cc2)CC1 10.5%, Cn1cc(C(=O)N2CCN(c3cccc(Cl)c3)CC2)c(=O)c2cc(S(=O)(=O)N3CCCC3)ccc21 -9.99%, CCOc1ccccc1NC(=O)c1c(NC(=O)Cc2ccccc2)sc2c1CCCC2 1.09%, Cc1cc(C)c(S(=O)(=O)Nc2ccc(-c3ccc(N4CCCCC4)nn3)cc2)c(C)c1 12.6%, COc1ccc(N2CCN(C(=O)c3cn(C4CCCCC4)c(=O)c4c3c3ccccc3n4C)CC2)cc1 3.8%, COC(=O)c1cccc(Nc2c(-c3ccc(O)cc3)nc3nc[nH]n23)c1 -15.2%, O=C(CCNS(=O)(=O)c1cccc2nonc12)Nc1ccc(F)cc1 10.7%, COC(=O)c1cc(OC)c(OC)c(OC)c1NC(=O)c1cc(=O)n(C)c(=O)n1C -31.2%, CCOc1ccc(NC(=O)CSc2ccc3ccccc3n2)cc1 -14.2%, CCOC(=O)c1ccc(NC(=O)c2c(NCc3cccc(OC)c3)sc3c2CCC3)cc1 -0.77%, Cc1ccccc1Nc1cc(C(=O)NC2CCC(C)CC2)c2ccccc2n1 (configuration not stated) 3.23%, O=C(Nc1ccc(F)cc1F)c1cc2ccc3cccnc3c2[nH]1 -27.2%, Cc1cccc(C)c1NC(=O)N1CCC(C(N)=O)(N2CCCCC2)CC1 1.85%, COc1cccc(C(=O)NCC(c2ccc(N(C)C)cc2)N2CCc3ccccc32)c1OC (configuration not stated) -9.92%

outcome, inactive:
CCOC(=O)c1cc(-c2ccccc2)n(-c2cccc(C(=O)NC(C)CC)c2)c1C (configuration not stated), COCCCNC(=O)CN1C(=O)COc2ccc(S(=O)(=O)N3CCOCC3)cc21, COc1ccc2oc(-c3ccc(C)c(NC(=O)c4sc5ccccc5c4Cl)c3)nc2c1
